# Source: PubChem BioAssay AID686978 (National Center for Advancing Translational Sciences (NCATS), 2013)
# Values joined by “and” are separate entries in the source; they are usually repeats but may differ in a detail not shown here. Equal values may be shown once. Among all 420,000 compounds or so, about 64,000 (15%) were called active. This list was built around the results that the source calls inconclusive (neither active nor inactive); the mix of calls is not that of the screen. Calls come from the whole dose curve; as a rule, active = well fitted inhibition curve with a large enough effect; inconclusive = small, poorly fitted or top-dose-only effect; inactive = flat fitted curve, though single readings scatter. Potencies beside an inconclusive call are fits to weak or partial responses and may not hold up.
# Assay: qHTS for Inhibitors of human tyrosyl-DNA phosphodiesterase 1 (TDP1): qHTS in cells in absence of CPT; note: nearly all actives have a fitted effect of over 55% in size
# Details: DT40 Tdp1-/- hTDP1 cells, no CPT, ATP luminescence, 48 h; activity change, negative = growth inhibition: at 46.2 µM (top of the series)
# In short: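 Chicken DT40 Tdp1-/- cells complemented with human TDP1, screened without camptothecin (DMSO vehicle only), 400 cells/well. Compounds pin-transferred, cells incubated at 37 °C for at least 48 hr. Growth read as ATP-dependent luminescence (CellTiter-Glo, 30 min at RT).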
# % is set by controls: 0 for no effect and ±100 for the full control effect; potency is the fitted concentration of half-maximal effect; tags give direction and shape of the fitted curve.
Structure (SMILES),Potency,"activity change, negative = growth inhibition"
C(=C\c1nc(N2CCCC2)c2ccccc2n1)/c1ccccc1,"inconclusive: 29.1 µM [inhibitor, single point]",–
CC(C)CCNC(=O)COC(=O)/C=C/c1ccc2ccccc2n1,"inconclusive: 18.4 µM [inhibitor, single point]",–
CN(Cc1ccccc1)C(=O)CCC1CCN(S(C)(=O)=O)CC1,–,inactive: 1.8%
Cc1ccc(C2C=C(c3ccc(F)cc3)Nc3nc(CCCO)nn32)cc1 (stereo unspecified),"inconclusive: 20.6 µM [inhibitor, single point]",–
COc1cc2cc(CN(CCc3ccccc3C)C(=S)NCCCN3CCOCC3)c(=O)[nH]c2cc1OC,"inconclusive: 16.4 µM [inhibitor, single point]",–
CCOc1ccc(C(=O)c2cn(Cc3ccccc3)c3c(F)cc(F)cc3c2=O)cc1,"inconclusive: 20.6 µM [inhibitor, partial curve, poor fit]",–
COCCNC(=O)c1cc(S(=O)(=O)N2CCC3(CC2)OCCO3)ccc1F,–,inactive: -16.6%
CCCCc1ccc(NS(=O)(=O)c2ccc(N3CCCCS3(=O)=O)cc2)cc1,"inconclusive: 16.4 µM [inhibitor, single point]",–
Cc1cccc(-n2nnc(C(=O)Nc3ccc(F)cc3)c2N)c1,"inconclusive: 11.6 µM [inhibitor, partial curve, poor fit]",–
Nc1nc(N)c2sc3nc4c(cc3c2n1)CCC4,"inconclusive: 29.1 µM [inhibitor, single point]",–
Cc1ccc2c(c1)C1CN(C)CCC1N2S(=O)(=O)c1ccc(C#N)cc1 (stereo unspecified),–,inactive: -25.6%
OC[C@@H]1CN(Cc2ccc(Cl)cc2)C[C@H](n2cnc3c(N4CCN(c5ccccc5)CC4)ncnc32)O1,active: 18.4 µM,–
CC1CC(C)CN(S(=O)(=O)c2cccc(C(=O)N3CCN(c4ccc(F)cc4)CC3)c2)C1 (stereo unspecified),active: 20.6 µM,–
O=C(CC1C(=O)NCCN1Cc1ccccc1C(F)(F)F)NC1CCC1 (stereo unspecified),"inconclusive: 0.13 µM [inhibitor, full curve, poor fit]",–
CS(=O)(=O)Nc1ccc(C2=NN(S(C)(=O)=O)C(c3cccs3)C2)cc1 (stereo unspecified),–,inactive: 6.29%
CCOC(=O)N1CCN(C(=O)CNC(=O)c2nn(-c3ccc(OC)c(Cl)c3)c(=O)c3ccccc23)CC1,active: 9.2 µM,–
C/C(CC(=O)Nc1cccc(Cl)c1C)=N\NC(=O)C(=O)NCC(C)C,"inconclusive: 23.1 µM [inhibitor, single point]",–
O=C(NCc1ccco1)C(Cc1ccccc1)NS(=O)(=O)c1cccc2nsnc12 (stereo unspecified),–,inactive: 7.47%
O=c1c(-c2cc(F)cc(F)c2)nc2cnc(N3CCNCC3)nc2n1C1CC1,"inconclusive: 18.4 µM [inhibitor, single point]",–
CCSc1ncc(Cl)c(C(=O)N(Cc2ccccc2)Cc2ccco2)n1,active: 16.4 µM,–
CC(=O)c1c(C)[nH]c(C(=O)NCc2ccc(Cl)cc2)c1C,–,inactive: -27.5%
CCCOc1ccc(NC(=O)CC2C(=O)N(c3ccc(C)cc3)C(=O)N2C2CCCC2)cc1 (stereo unspecified),"inconclusive: 29.1 µM [inhibitor, single point]",–
CCc1ccc2c(CC(=O)NNC(=O)c3ccncc3)coc2c1,–,inactive: 0%
CC1=C(C(=O)Nc2cc(Cl)ccc2C)C(c2ccco2)n2ncnc2N1 (stereo unspecified),–,inconclusive: -33.7% [inhibitor]

Structure (SMILES),Potency,"activity change, negative = growth inhibition"
COc1ccc(-c2csc(C(C)(O)c3ccc(F)c(F)c3)n2)cc1OC (stereo unspecified),"inconclusive: 25.9 µM [inhibitor, single point]",–
O=C(CSc1nc2c([nH]c3ccccc32)c(=O)n1-c1ccc(F)cc1)NCc1ccco1,"inconclusive: 20.6 µM [inhibitor, single point] and inconclusive: 29.1 µM [inhibitor, single point]",–
CS(=O)(=O)N1CCN(C(=O)c2ccc(Cl)s2)CC1,–,inactive: -0.716%
O=C(N/N=C1\C/C(=N\NC(=O)c2ccncc2)c2ccccc21)c1ccncc1,"inconclusive: 20.6 µM [inhibitor, partial curve]",–
Cc1nc2ccccc2c(=O)n1CCCO,–,inactive: -5.1%
Cn1c(O)c(C2=c3ccccc3=NC2=O)[nH]c1=S,–,inactive: -23.3%
CCSc1nnc2c(n1)OC(c1sccc1C)N(C(C)=O)c1ccccc1-2 (stereo unspecified),active: 13 µM,–
C/C(=N\NC(=O)C(O)c1ccccc1)c1ccc(Br)s1 (stereo unspecified),–,inconclusive: -31.9% [inhibitor]
Cn1ccc2c(N3CCC3)cc3c(c21)C1CCC3O1 (stereo unspecified),"inconclusive: 16.4 µM [inhibitor, single point]",–
Cc1ccc(C(=O)NNC(=O)c2ccccc2O)cc1S(=O)(=O)N1CCCCC1,"inconclusive: 13 µM [inhibitor, partial curve, poor fit]",–
COc1ccc(-c2nc(CS(=O)(=O)CC(=O)NCCCc3ccccc3)c(C)o2)cc1,"inconclusive: 18.4 µM [inhibitor, single point]",–
COC(=O)c1ccc(NC(=O)c2cccc(Cl)c2)o1,"inconclusive: 4.61 µM [inhibitor, full curve, poor fit]",–
O=C(NCCn1cc(SCC(=O)N2CCOCC2)c2ccccc21)c1c(F)cccc1F,"inconclusive: 18.4 µM [inhibitor, single point]",–
COc1ccc(CCNC/C=C/c2ccccc2)cc1,"inconclusive: 14.6 µM [inhibitor, partial curve]",–
O=c1nc(SCc2c(F)cccc2Cl)nc(-c2ccccc2)[nH]1,–,inactive: -23%
COc1ccc(Cn2c(=O)c3oc4ccccc4c3n(Cc3cccc(F)c3)c2=O)cc1,"inconclusive: 16.4 µM [inhibitor, single point]",–
CCCC1CCC(C2=N/C(=C\c3ccc(OC)c(OC)c3)C(=O)O2)CC1 (stereo unspecified),"inconclusive: 20.6 µM [inhibitor, partial curve, poor fit]",–
Cc1ccc(OCC(=O)Nc2ccc3nc(SCC(N)=O)sc3c2)cc1,–,inactive: -23.1%
CCCc1cc(=O)[nH]c(SCC(=O)N2CCc3ccccc3C2)n1,–,inactive: 0.468%
CCC(C)(C)C1CCC2(CC1)NC(=O)N(CC(=O)N(C)Cc1ccc3c(c1)OCCO3)C2=O (stereo unspecified),active: 20.6 µM,–
CCOC(=O)C1CCCN(S(=O)(=O)c2cc3c(cc2C)NC(=O)CO3)C1 (stereo unspecified),"inconclusive: 29.1 µM [inhibitor, single point]",–
COC(=O)c1ccc(-c2noc(CN(Cc3ccccn3)CC3CCCO3)n2)cc1 (stereo unspecified),"inconclusive: 29.1 µM [inhibitor, single point]",–
COc1ccc([C@H]2CC(=O)C=C(c3cc(C=O)ccc3OC)C2)cc1,active: 5.8 µM,–
COc1ccc(Cn2nnnc2C(c2ccc(C)cc2)N2CCN(C3CCCC3)CC2)cc1 (stereo unspecified),active: 9.2 µM,–

Structure (SMILES),Potency,"activity change, negative = growth inhibition"
COc1cc(Cl)c(NC2=CC(=O)C(=O)c3ccccc32)c(OC)c1,"inconclusive: 11.6 µM [inhibitor, partial curve, poor fit]",–
CCOc1ccc2nc(NC(=O)CS(=O)(=O)c3ccc(C)cc3)sc2c1,active: 16.4 µM,–
Fc1ccc(COc2ccc(Br)cc2CNCC2CCCO2)cc1 (stereo unspecified),"inconclusive: 29.1 µM [inhibitor, single point]",–
Cc1ccc(CNC(=S)Nc2cc(C)ccc2OC(F)F)cc1,"inconclusive: 29.1 µM [inhibitor, single point]",–
CC(=O)c1c(C)[nH]c(C(=O)OCC(=O)Nc2ccc3[nH]c(=O)[nH]c3c2)c1C,–,inactive: 3.67%
Cc1nc2ccccc2c(=O)n1CCN1CCOCC1,–,inactive: -13.7%
COc1cc(NC(=O)CSc2nc3[nH]ncc3c(=O)n2-c2ccccc2C)cc(OC)c1OC,"inconclusive: 16.4 µM [inhibitor, partial curve]",–
Cc1onc(-c2c(Cl)cccc2Cl)c1C(=O)N=C(N)N1CC(C)OC(C)C1 (stereo unspecified),"inconclusive: 16.4 µM [inhibitor, single point]",–
CCOc1ccc(CCNC(=O)COC(=O)CCC(=O)c2cccs2)cc1OCC,–,inactive: -1.12%
C=CCC1CCCCC1=C(C#N)c1ccccc1 (stereo unspecified),–,inactive: -3.18%
CC(Oc1ccc2ccccc2c1)C(=O)N/N=C/c1cccnc1 (stereo unspecified),"inconclusive: 16.4 µM [inhibitor, single point]",–
CNc1c(N)n(Cc2ccccc2)c(=O)[nH]c1=O,–,inactive: -3.17%
CCCn1nc(NC(=O)c2cccs2)c2cc3ccccc3nc21,"inconclusive: 23.1 µM [inhibitor, single point]",–
Cc1ccc(NC(=O)C2CCCN(S(=O)(=O)c3c(C)n[nH]c3C)C2)cc1Cl (stereo unspecified),"inconclusive: 16.4 µM [inhibitor, partial curve, poor fit]",–
CC1(C)CC(=O)C2=C(C1)NC1=C(C(=O)c3ccccc31)C2c1ccc(O)cc1 (stereo unspecified),"inconclusive: 29.1 µM [inhibitor, single point]",–
COc1cc(C(=O)Nc2ccc(C(=O)O)cc2)ccc1OC(C)=O,–,inactive: -8.68%
COc1ccccc1N1C(=O)CC(Sc2n[nH]c(-c3cccc(C)c3)n2)C1=O (stereo unspecified),active: 2.06 µM,–
c1coc(-c2nc(-c3ccncc3)no2)c1,"inconclusive: 18.4 µM [inhibitor, partial curve]",–
Cc1cccc(CSc2nnc3c(n2)[nH]c2ccccc23)c1,"inconclusive: 13 µM [inhibitor, partial curve, poor fit]",–
Cn1c(=O)c2c(ncn2CC(=O)OCC(=O)NC(c2ccccc2)c2ccccc2)n(C)c1=O,"inconclusive: 4.61 µM [inhibitor, single point]",–
CC[C@H](C)[C@H](NC(=O)OCC1c2ccccc2-c2ccccc21)C(=O)O,–,inactive: -2.57%
COC(=O)c1c(C)oc2ccc(N(C(=O)Oc3ccccc3)S(=O)(=O)c3ccc(C(C)(C)C)cc3)cc12,active: 1.46 µM,–
CCN(CC)CCNC(=O)c1ccc(NS(C)(=O)=O)cc1,–,inactive: -5.07%
